Source: PubChem BioAssay AID1745845 (National Center for Advancing Translational Sciences (NCATS), 2022)
Values joined by “and” are separate entries in the source; they are usually repeats but may differ in a detail not shown here. Equal entries are not always repeated. The campaign covered roughly 360,000 compounds. About 2,600 (0.72%) were called active. Inconclusive results, whose numbers are uncertain, are shown with a selection of clear calls. Calls come from the whole dose curve; as a rule, active = well fitted inhibition curve with a large enough effect; inconclusive = small, poorly fitted or top-dose-only effect; inactive = no such curve, though single readings can be large or run the other way. Potencies beside an inconclusive call are fits to weak or partial responses and may not hold up.
% is set by controls: 0 for no effect and ±100 for the full control effect; potency is the fitted concentration of half-maximal effect; tags give direction and shape of the fitted curve.

Assay: Primary qHTS for Inhibitors of ATXN expression; note: nearly all actives have a fitted effect of over 55% in size
Conditions: HEK-293 ATXN2-luciferase reporter, luminescence, 24 h; activity change, negative = inhibition: at 57 µM (top of the series)
In short: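 ATXN2-luciferase reporter cells (luciferase flanked by upstream and downstream ATXN2 gene portions) were treated 24 h at 37 °C with compounds at up to 57 uM. SteadyGlo luminescence gave expression; GF-AFC fluorescence gave viability.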
In the case of `C=C(C)C1CC=C(C)/C(=N/NC(=O)COc2ccc(C)cc2)C1` (stereo unspecified), the Potency is reported as inconclusive: 28.2 µM [inhibitor, single point]. In the case of `CC1=NC(Nc2nc(C)c3ccccc3n2)=NC(C)(C)C1`, the Potency is reported as inconclusive: 17.8 µM [inhibitor, single point]. For `O=C(Nc1cccc(Cl)c1)Nc1csc([N+](=O)[O-])c1`, the Potency was inconclusive: 39.8 µM [inhibitor, single point]. For `COc1ccc(S(=O)(=O)NCc2cccnc2)cc1NC(=O)c1ccccc1`, the “activity change, negative = inhibition” value was inactive: -11.7%. For `COC(=O)C1=CN(CC2CCCO2)C=C(C(=O)OC)C1c1ccccc1C(F)(F)F` (stereo unspecified), the “activity change, negative = inhibition” value was inactive: -5.16%. In the case of `O=C(Nc1ccc(CN2CCOCC2)cc1)c1ccc(-c2ccc(Br)cc2)o1`, the Potency is reported as inconclusive: 17.8 µM [inhibitor, partial curve]. With `Cc1cccc(Cn2cc(C(=O)c3ccccc3)c(=O)c3cc4c(cc32)OCO4)c1` the “activity change, negative = inhibition” value was inactive: -20.4%. In the case of `Cc1occc1C(=O)N/N=C/c1ccc2c(c1)OCO2`, the Potency is reported as inconclusive: 28.2 µM [inhibitor, single point]. In the case of `CCC(=O)OC1(C#CCOc2ccc(OC)cc2)CCN(C)CC1`, the “activity change, negative = inhibition” value is reported as inactive: -11.1%. In the case of `CCCCN(C(=O)c1cccc(S(=O)(=O)N(C)c2ccc(C)cc2)c1)c1c(N)n(CCCC)c(=O)[nH]c1=O`, the “activity change, negative = inhibition” value is reported as inactive: -1.16%. With `COc1ccc(Cl)cc1NC(=O)CN(C)C(=O)c1n[nH]c2ccccc12` the Potency was inconclusive: 35.5 µM [inhibitor, single point]. In the case of `O=C1c2cccc3c([N+](=O)[O-])ccc(c23)C(=O)N1CC1CCCO1` (stereo unspecified), the Potency is reported as inconclusive: 14.1 µM [inhibitor, partial curve]. For `Cc1c(O)c(=O)ccn1Cc1ccccc1`, the Potency was inconclusive: 25.1 µM [inhibitor, single point]. With `CCOC(=O)c1ccc(NC(=O)CSc2ccc(-c3sc(C)nc3C)nn2)cc1` the “activity change, negative = inhibition” value was inactive: 7.5%. With `NC1=Nc2cccc3cccc1c23` the Potency was inconclusive: 37.7 µM [inhibitor, partial curve, poor fit]. For `CC(C)(C)OC(=O)[C@H](Cc1ccccc1)NC(=O)c1nc[nH]c1C(=O)NC1CCN(C(=O)OC(C)(C)C)CC1`, the Potency was inconclusive: 39.8 µM [inhibitor, single point]. In the case of `CCC(=O)N1CCc2cc(S(=O)(=O)CCC(=O)Nc3ccc(Cl)c(C(F)(F)F)c3)ccc21`, the Potency is reported as inconclusive: 3.16 µM [inhibitor, partial curve, poor fit]. With `CCOc1ccccc1NC(=O)COC(=O)/C=C/c1ccc(OC)c(OC)c1` the Potency was inconclusive: 37.7 µM [inhibitor, single point]. In the case of `c1ccc(C2=Nc3c(ccc4ccccc34)C(c3ccncc3)=NN2)cc1`, the Potency is reported as inconclusive: 8.44 µM [inhibitor, full curve]. With `Cc1c(C=O)c(C=O)c(C)n1Cc1ccccc1` the Potency was inconclusive: 39.8 µM [inhibitor, partial curve, poor fit]. With `COc1ccccc1NC(=O)NCc1ccco1` the activity change, negative = inhibition was inactive: 8.13% [at 11.3 µM]. For `Cc1cc(Nc2ccccc2)n(-c2cccc(Cl)c2)n1`, the Potency was inconclusive: 28.2 µM [inhibitor, partial curve, poor fit]. In the case of `COc1ccccc1-c1nnc(SC2CCc3ccccc3NC2=O)s1` (stereo unspecified), the “activity change, negative = inhibition” value is reported as inactive: 11.4%. With `Cc1ccc(OCC(=O)N2CCN(C(=O)c3ccncc3)CC2)cc1` the “activity change, negative = inhibition” value was inactive: -19.8%. In the case of `CCCCNc1c(-c2ccc(-c3ccc(OC)cc3)c(OC)c2)nc2ccccn12`, the Potency is reported as inconclusive: 25.1 µM [inhibitor, single point]. With `COc1ccc(-c2cc(=S)ss2)cc1` the “activity change, negative = inhibition” value was inactive: -4.1%. For `O=C(Nc1ccc(N2CCOCC2)c(Cl)c1)c1cc2ccccc2o1`, the Potency was inconclusive: 39.8 µM [inhibitor, single point]. For `COc1ccc(CNc2cccc3[nH]c(C(F)(F)F)nc23)cc1`, the “activity change, negative = inhibition” value was inactive: -25.7%. In the case of `CCCCN(CCCNC(=S)NCCCc1cnc[nH]1)c1ccc(Br)cn1`, the Potency is reported as inconclusive: 31.6 µM [inhibitor, single point]. In the case of `Nc1c(N(CCC2=CCCCC2)C(=O)COc2ccc(F)cc2)c(=O)[nH]c(=O)n1Cc1ccccc1`, the Potency is reported as inconclusive: 28.2 µM [inhibitor, single point]. In the case of `O=C(COc1ccccc1Br)NC(=O)NC1CCCC1`, the “activity change, negative = inhibition” value is reported as inactive: 49.3%. For `O=C1CCN(CCCc2ccccc2)CCN1[C@H](CO)Cc1ccccc1`, the Potency was inconclusive: 14.1 µM [inhibitor, partial curve]. In the case of `CN(CC(=O)Nc1ccccc1Cl)C(=O)c1cccc(S(=O)(=O)N2CCN(c3ccc(F)cc3)CC2)c1`, the Potency is reported as inconclusive: 35.5 µM [inhibitor, single point]. For `COc1ccccc1-c1cc2nc(-c3ccccc3)cc(N3CCN(C(=O)c4ccco4)CC3)n2n1`, the Potency was active: 12.6 µM. For `CCCCC(=O)Oc1c(S(=O)(=O)c2ccc(C)cc2)c(C)nn1C(C)(C)C`, the Potency was inconclusive: 39.8 µM [inhibitor, single point]. In the case of `COc1ccc(OCCCN2CCCC(C)C2)cc1` (stereo unspecified), the “activity change, negative = inhibition” value is reported as inactive: 0.582%. With `Cc1ccc2[nH]c3c(c2c1)CN(C(=O)CN1CCN(c2cccc(C)c2C)CC1)CC3` the Potency was inconclusive: 22.4 µM [inhibitor, single point]. For `c1ccc2nc(N3CCCC3)c(N3CCCC3)nc2c1`, the “activity change, negative = inhibition” value was inactive: -0.465%. In the case of `Cn1c(/C=C/c2ccc(Cl)cc2)c([N+](=O)[O-])c(=O)n(C)c1=O`, the Potency is reported as inconclusive: 35.5 µM [inhibitor, single point]. With `COc1ccc(CN2COc3ccc4c(-c5ccccc5)cc(=O)oc4c3C2)cc1` the “activity change, negative = inhibition” value was inactive: 0.484%. For `Cc1ccc(OCCn2cc(/C=C(\C#N)C(=O)NCC3CCCO3)c3ccccc32)cc1C` (stereo unspecified), the “activity change, negative = inhibition” value was inactive: -2.93%. With `COc1cc(CNc2ncc(-c3ccc(Br)cc3)n2C)cc(OC)c1OC` the activity change, negative = inhibition was inconclusive: -48.2% [inhibitor]. For `Clc1cccc(N2CCN(CCCN3CCN(c4ccccc4)CC3)CC2)c1`, the Potency was inconclusive: 17.8 µM [inhibitor, partial curve]. With `Cc1c(CCC(=O)N2CCC[C@H]2C(=O)O)c(=O)oc2cc3oc4c(c3cc12)CCCC4` the Potency was inconclusive: 2.24 µM [inhibitor, partial curve, poor fit]. In the case of `CC(=O)c1ccc(N2CCC(c3cc(-c4ccc(Cl)cc4)n[nH]3)CC2)c([N+](=O)[O-])c1`, the Potency is reported as inconclusive: 22.4 µM [inhibitor, single point]. For `C(C#CCCCCCCCCC[n+]1ccccc1)#CCCCCCCCCC[n+]1ccccc1`, the Potency was active: 7.08 µM and inconclusive: 4.47 µM [inhibitor, partial curve, poor fit]. In the case of `CCOc1ccc(CCN2C(=S)N([C@@H](Cc3ccc(O)cc3)CN3CCC[C@@H]3CN3C(=S)NC[C@@H]3Cc3ccc(O)cc3)C[C@@H]2Cc2ccc(O)cc2)cc1`, the Potency is reported as inconclusive: 39.8 µM [inhibitor, single point]. With `O=C(Cc1ccccc1)Nc1ccc(N2CCOCC2)cc1N1CCOCC1` the Potency was inconclusive: 31.6 µM [inhibitor, partial curve, poor fit]. With `O=C(N/N=C(\Cc1ncc[nH]1)c1ccccc1)c1ccncc1` the Potency was inconclusive: 8.44 µM [inhibitor, partial curve, poor fit]. In the case of `Cn1nnnc1Sc1ncnc2scc(-c3ccc[nH]3)c12`, the Potency is reported as active: 10 µM. In the case of `Nc1nonc1-c1nc2ccccc2n1Cc1ccc(F)cc1`, the Potency is reported as inconclusive: 15.8 µM [inhibitor, partial curve, poor fit]. For `Cc1ccc(-n2nnc3c(SCC(=O)NCc4ccco4)ncnc32)cc1`, the Potency was inconclusive: 39.8 µM [inhibitor, single point]. For `COc1ccc(NC(=O)C2(C)CCN2Cc2ccc(OC)c3ccccc23)cc1OC` (stereo unspecified), the Potency was inconclusive: 25.1 µM [inhibitor, partial curve, poor fit]. In the case of `O=C(Oc1c(CN2CCOCC2)cc(Cl)c2cccnc12)c1ccccc1`, the Potency is reported as active: 8.91 µM. For `O=C(N/N=C/c1c(O)ccc2ccccc12)c1ccc(CO)nc1`, the Potency was active: 3.98 µM. In the case of `CCCCOc1ccc(S(=O)(=O)N2CCN(c3ccccc3OCC)CC2)cc1`, the “activity change, negative = inhibition” value is reported as inactive: 7.77%. With `Cc1ccc(S(=O)(=O)Nc2ccc3cc([N+](=O)[O-])ccc3c2[N+](=O)[O-])cc1` the Potency was inconclusive: 31.6 µM [inhibitor, partial curve, poor fit]. With `CCCNC(=O)c1ccc2c(=O)c(O)c(-c3ccc(C)cc3)[nH]c2c1` the Potency was inconclusive: 28.2 µM [inhibitor, single point]. For `CCCCOCCCNC(=O)C[C@@H]1C[C@@]2(C(=O)OC)CCCCC=C2N(Cc2cccc3ccccc23)C1=O`, the Potency was inconclusive: 39.8 µM [inhibitor, single point]. For `CCOC(CN=c1nc(N(C)C)ss1)OCC`, the Potency was inconclusive: 37.7 µM [inhibitor, single point]. With `Cc1ccc(-c2csc(NC(=O)C3CCN(S(=O)(=O)c4cccs4)CC3)n2)cc1` the Potency was inconclusive: 8.91 µM [inhibitor, partial curve, poor fit]. With `C=C(C)C1CCC2(C(=O)O)CCC3(C)C(CCC4C5(C)C(C=O)C(O)C(C)(C)C5CCC43C)C12` (stereo unspecified) the Potency was inconclusive: 39.8 µM [inhibitor, single point]. In the case of `CC(=O)C1=C(c2ccc(Cl)c(Cl)c2)N(C(C)=O)n2c(C)nnc2S1`, the Potency is reported as active: 28.2 µM. With `O=C(NC[C@@H]1CC[C@@H](Cc2ccc(-c3ccccc3)cc2)O1)Nc1ccc(Br)cc1` the Potency was inconclusive: 22.4 µM [inhibitor, partial curve, poor fit]. In the case of `CNc1ccc(Br)cc(C(=O)/C=C/c2cc(OC)ccc2OC)c1=O`, the Potency is reported as inconclusive: 39.8 µM [inhibitor, single point]. For `COc1ccc(-c2csc(C(C)(O)c3ccccc3)n2)cn1` (stereo unspecified), the “activity change, negative = inhibition” value was inactive: 0.544%.
